# Reference: PubChem BioAssay AID485294 (National Center for Advancing Translational Sciences (NCATS), 2010)
# Hit rate of the full screen: of about 370,000 compounds, about 150 (0.041%) were called active. Inconclusive results, whose numbers are uncertain, are shown with a selection of clear calls. Calls come from the whole dose curve; as a rule, active = well fitted inhibition curve with a large enough effect; inconclusive = small, poorly fitted or top-dose-only effect; inactive = flat fitted curve, though single readings scatter. No potency is given beside an inconclusive call; the fits are too rough.
# Target: Beta-lactamase (Escherichia coli (strain K12)) (UniProt P00811)
# Test: qHTS Inhibitors of AmpC Beta-Lactamase (assay with detergent); note: nearly all actives have a fitted effect of over 25% in size
# Settings: AmpC hydrolysis of nitrocefin, absorbance 480 nm, 0.01% Triton; series mostly up to 114 µM
# How it was run: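 AmpC (5.3 nM in the dispensed reagent) in 20 mM phosphate pH 7.0 with 0.01% (detergent screen) or 0.0001% Triton X-100 was preincubated with compounds for 15 min at room temperature. Nitrocefin was then added from an 800 uM solution, and hydrolysis was followed at 480 nm.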
# Potency is the fitted concentration of half-maximal effect; tags give direction and shape of the fitted curve.
# Sequence of UniProt P00811 (P00811 whole entry, looked up): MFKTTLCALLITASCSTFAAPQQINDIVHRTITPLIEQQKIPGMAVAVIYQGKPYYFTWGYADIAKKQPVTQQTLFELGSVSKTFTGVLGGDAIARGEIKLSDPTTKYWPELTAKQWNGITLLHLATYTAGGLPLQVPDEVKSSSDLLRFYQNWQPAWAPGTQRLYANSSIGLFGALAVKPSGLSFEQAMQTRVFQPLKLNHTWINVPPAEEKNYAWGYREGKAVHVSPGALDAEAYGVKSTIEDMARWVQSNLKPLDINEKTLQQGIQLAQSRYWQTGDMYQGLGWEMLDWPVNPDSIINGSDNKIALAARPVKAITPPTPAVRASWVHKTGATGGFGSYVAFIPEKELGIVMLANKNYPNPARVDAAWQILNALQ
row,Compound,Potency
1,O=C(O)C1C2C=CC(C2)C1C(=O)Nc1cccc(C(F)(F)F)c1 (stereo unspecified),"inconclusive [inhibitor, full curve, poor fit]"
2,Nc1cc(N2CCOCC2)c(Cl)cc1[N+](=O)[O-],"inconclusive [inhibitor, full curve]"
3,Cc1cccc(OCCSc2cc(C)nc(N)n2)c1,"inconclusive [inhibitor, full curve]"
4,C/C(=N\NC(=O)c1nn(C)c(C)c1Br)c1cccc(NC(=O)c2ccoc2C)c1,"inconclusive [inhibitor, full curve]"
5,CC(C)c1ccc(NC(=O)CN2CCN(c3ccccn3)CC2)cc1,inactive
6,Nc1nc(Nc2ccccc2)sc1C(=O)c1ccccc1,inactive
7,CC1=C(C#N)C(NC(=O)c2ccccc2)(C(F)(F)F)C(=O)N1 (stereo unspecified),inactive
8,c1ccc(CN2CCC(Nc3nc(-c4cccs4)nc4ccccc34)CC2)cc1,"inconclusive [inhibitor, full curve, poor fit]"
9,CC(C)(C)NC(=O)NC(=O)CN1CCN(c2ncc(C(F)(F)F)cc2Cl)CC1,inactive
10,COc1ccccc1CNC(=O)CS(=O)Cc1nc(-c2ccccc2C)oc1C (stereo unspecified),"inconclusive [inhibitor, full curve, poor fit]"
11,CCSc1nnc(C)n1-c1ccc(C(=O)O)cc1,"inconclusive [inhibitor, single point]"
12,Cc1ccccc1Oc1nc2c(C)cccn2c(=O)c1/C=C(\C#N)C(=O)Nc1c(C)n(C)n(-c2ccccc2)c1=O,inactive
13,CN(C)c1ccc(NC(=O)C2C3C=CC(C3)C2C(=O)O)cc1 (stereo unspecified),inactive
14,COc1ccc(N2CCN(CCNC(=O)C3CC(=O)N(C4CCCC4)C3)CC2)cc1 (stereo unspecified),inactive
15,O=C(C(c1ccccc1)c1ccccc1)N1CCCc2ccccc21,"inconclusive [inhibitor, partial curve, poor fit]"
16,CC(=O)SC1CC(=O)N(c2c(C)cccc2C)C1=O (stereo unspecified),inactive
17,NS(=O)(=O)c1ccc(CCNC(=O)c2ccc(NS(=O)(=O)c3ccc4[nH]c(=O)[nH]c4c3)cc2)cc1,"inconclusive [inhibitor, full curve]"
18,O=C(CC1C(=O)NCCN1Cc1ccc(F)cc1Cl)NC1CCCCCCC1 (stereo unspecified),inactive
19,Cc1ccc(CNCC(O)c2ccccc2)s1 (stereo unspecified),inactive
20,Cc1cc2ncc(S(=O)(=O)c3ccccc3)c(N)n2n1,"inconclusive [inhibitor, full curve, poor fit]"
21,COC(=O)c1c(NC(C)=O)sc(C(=O)Nc2ccccc2C)c1C,"inconclusive [inhibitor, single point]"
